{"source": "paper PMC11393453", "about": "“Phosphorylation of tau at a single residue inhibits binding to the E3 ubiquitin ligase, CHIP” (Nature Communications, 2024)", "target": "CHIP (C-terminus of Hsc70 interacting protein; STUB1), recombinant human, full-length (human) (UniProt Q9UNE7)", "sequence (Q9UNE7 whole entry)": "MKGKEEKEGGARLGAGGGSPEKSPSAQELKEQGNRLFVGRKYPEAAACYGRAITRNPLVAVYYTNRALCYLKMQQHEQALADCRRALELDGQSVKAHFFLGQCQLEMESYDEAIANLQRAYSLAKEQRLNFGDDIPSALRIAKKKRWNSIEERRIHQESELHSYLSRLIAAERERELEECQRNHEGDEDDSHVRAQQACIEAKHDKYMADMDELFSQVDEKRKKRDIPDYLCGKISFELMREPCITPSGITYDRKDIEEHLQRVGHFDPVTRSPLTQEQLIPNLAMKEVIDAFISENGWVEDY"}
{"substance": "full length p.tau, produced in Sf9 cells (a stretch of the chain, no sequence given) (natural protein; phosphorylated in Sf9 cells; sites not printed; other documents disagree on this pair)", "values": [{"measurement": "Kd", "value": 500, "unit": "nM"}]}
